Results from PubChem BioAssay AID504832 (National Center for Advancing Translational Sciences (NCATS), 2011).
The whole screen tested about 310,000 compounds, of which about 18,000 (5.8%) were called active. This list was built around the results that the source calls inconclusive (neither active nor inactive); the mix of calls is not that of the screen. Calls come from the whole dose curve; as a rule, active = well fitted inhibition curve with a large enough effect; inconclusive = small, poorly fitted or top-dose-only effect, or another doubt; inactive = no such curve, though single readings can be large or run the other way. Potencies of inconclusive entries are left out as doubtful fits.

test: Primary qHTS for delayed death inhibitors of the malarial parasite plastid, 48 hour incubation; settings: P. falciparum luciferase growth in erythrocytes; series mostly up to 28.7 µM
In short: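 First compound was added to culture medium, then infected red cells at 0.1% parasitemia and 2% hematocrit (final). After incubation at 37 C under 5% CO2, luciferase detection reagent was dispensed and light output recorded.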
Potency is the fitted concentration of half-maximal effect; tags give direction and shape of the fitted curve.

SMILES	Potency
NS(=O)(=O)c1ccc(NC(=O)CSc2nc3ccccc3[nH]2)cc1	inactive
CN1C(=O)/C(=C/c2cccc([N+](=O)[O-])c2)C(=O)N1c1ccccc1	inactive
COc1ccc(NC(=O)Nc2ccncc2)c(OC)c1	inconclusive [inhibitor, single point]
Cc1cc(Nc2ccc(C)c(C)c2)n2nc(C)nc2n1	active: 0.738 µM
N/C(=N\OC(=O)c1ccc(=O)n(Cc2ccccc2)c1)c1ccccn1	active: 13.1 µM
N=C(N)SCc1nc2ccccn2c1Br	inconclusive [inhibitor, single point]
CCOCCCNC(=O)C(c1ccccc1)N(Cc1ccc2c(c1)OCO2)C(=O)c1ccccc1O (configuration not stated)	inconclusive [inhibitor, full curve, poor fit]
CCOCCn1[nH]c2ccccc2c1=O	inconclusive [inhibitor, single point]
Cc1c(CCC(=O)NCCCn2ccnc2)c(=O)oc2c(C)c3occ(C(C)(C)C)c3cc12	inconclusive [inhibitor, partial curve, poor fit]
COc1ccc(N(CC(=O)NC2CCCC2)C(=O)c2ccc(C)s2)c(OC)c1	inconclusive [inhibitor, partial curve]
COc1ccc(-n2c(C)ccc2C)c([N+](=O)[O-])c1	inconclusive [inhibitor, partial curve]
COc1ccc(NC(=O)C2CCCCN2N)cc1OCC(C)C (configuration not stated)	inconclusive [inhibitor, single point]
Cc1onc(-c2ccccc2)c1C(=O)N1CCCN2C(=O)c3ccccc3C21 (configuration not stated)	inconclusive [inhibitor, single point]
FC(F)Oc1ccc(NC(=S)Nc2ccc3cn[nH]c3c2)cc1	inactive
CNC(=S)N1CCn2cccc2C1c1cccnc1 (configuration not stated)	inconclusive [inhibitor, full curve, poor fit]
CC(=O)c1ccc(N2CCN(S(=O)(=O)c3csc(C(N)=O)c3)CC2)cc1	inconclusive [inhibitor, partial curve]
O=C1c2ccccc2-c2onc3c(N4CCN(CCO)CC4)cc(N4CCN(C(=O)c5ccco5)CC4)c1c23	inconclusive [inhibitor, full curve]
O=C(CN1C(=O)CSc2ccc(S(=O)(=O)N3CCCCC3)cc21)NCc1cccnc1	inconclusive [inhibitor, single point]
Cc1ccc2[nH]c(O)c(N=NC(=O)C(C)n3cnc4ccccc4c3=O)c2c1 (configuration not stated)	inactive
CC1(C(=O)OCC(=O)NNC(=O)COc2ccc(Cl)cc2)CC1(Cl)Cl (configuration not stated)	inactive
CCOC(=O)C1(CCCc2ccccc2)CCN(C(=O)CCc2cnccn2)CC1	inconclusive [inhibitor, single point]
COc1ccc(NC(=O)C(c2ccc(OC)cc2)N(Cc2ccco2)C(=O)CC2NC(=O)NC2=O)cc1 (configuration not stated)	inconclusive [inhibitor, partial curve]
Oc1ccc(-c2nc3ccccc3s2)cc1	inactive

SMILES	Potency
Cc1ccc(S(=O)(=O)Cn2nnnc2C(c2ccc(F)cc2)N2CCCCC2)cc1 (configuration not stated)	inconclusive [inhibitor, partial curve, poor fit]
O=C(Nc1ccc2c(c1)OCO2)[C@@H]1CCCN1S(=O)(=O)c1cccc2cccnc12	inconclusive [inhibitor, single point]
O=C(Nc1ccc(F)cc1F)c1cc(=O)n(-c2ccccc2)c(=O)[nH]1	inactive
Cn1c(=O)c2c(nc(CN3CCN(Cc4ccccc4)CC3)n2Cc2ccc(F)cc2)n(C)c1=O	active: 7.38 µM
c1ccc(CCNCc2cccs2)cc1	inconclusive [inhibitor, single point]
CCOc1ccccc1NC(=O)CSc1nc(=O)n(CCCN2CCOCC2)c2c1CCCC2	inconclusive [inhibitor, single point]
Cc1nnc(C)n1/N=C/c1ccc2c(c1)OCCO2	inactive
Cc1[nH]c2ccc(OC(F)(F)F)cc2c1CCN1C(=O)c2ccc(C(=O)O)cc2C1=O	inactive
COc1ccccc1Nc1nnc(SCc2cc(=O)n3cc(C)ccc3n2)s1	inactive
Cc1nc(NCC(c2ccccc2)N(C)C)c2c(C)c(C)sc2n1 (configuration not stated)	inconclusive [inhibitor, partial curve]
C/C(=N\NC(=O)CCc1ccc(S(=O)(=O)N2CCOCC2)cc1)c1ccc(Br)cc1	inactive
CCCc1c(C(=O)NNc2cc(C(F)(F)F)ccc2Cl)cnn1-c1ccccc1	inconclusive [inhibitor, partial curve]
Cc1ccc(S(=O)(=O)N2CCCC2CNC(=O)C(=O)NC2CC2)cc1 (configuration not stated)	inactive
COCCN(C(=O)CCC(=O)Nc1cc(C)on1)C(C(=O)NC1CCCC1)c1ccc(C(C)C)cc1 (configuration not stated)	inconclusive [inhibitor, single point]
CCc1nn2cc(C(=O)c3cc(Cl)ccc3O)cnc2c1-c1ccc(F)cc1	active: 6.57 µM
CCCCn1c(O)c(N=NC(=O)c2ccco2)c2ccccc21	inconclusive [inhibitor, single point]
C#CCSc1nc(-c2ccccc2)cc(C(F)(F)F)c1C#N	inconclusive [inhibitor, single point]
CCOC(=O)C1(Cc2ccccc2C)CCCN(C(=O)c2ccoc2)C1 (configuration not stated)	inconclusive [inhibitor, partial curve, poor fit]
CN(Cc1cccnc1)C(=O)c1cc(COc2ccc3c(c2)CCCC3)on1	inconclusive [inhibitor, partial curve, poor fit]
COc1ccc(CNC(=O)C(C)OC(=O)CO/N=C(\C)c2ccc3c(c2)OCO3)cc1 (configuration not stated)	inconclusive [inhibitor, partial curve]
Cc1cc(-c2nn(-c3ccccc3F)cc2CN2CCCC(C(N)=O)C2)c(C)s1 (configuration not stated)	inconclusive [inhibitor, partial curve]
CCCN1C2CCCC1CC(NC(=S)Nc1cc(C)ccc1C)C2 (configuration not stated)	inconclusive [inhibitor, partial curve, poor fit]
COc1cccc(-c2cc(C(=O)Nc3ccc([N+](=O)[O-])cn3)c3ccccc3n2)c1	inconclusive [inhibitor, single point]

SMILES	Potency
Cc1ccc(/C=C/C(=O)OCC(=O)NCCN2C(=O)CSC2=O)o1	inactive
Cn1nc(C(F)(F)F)c(-c2ccccc2)c1NC(=O)c1ccco1	inconclusive [inhibitor, full curve, poor fit]
CC(=O)c1nnn(-c2nc(N)nc(N(c3ccccc3)c3ccccc3)n2)c1C	inconclusive [inhibitor, partial curve]
COc1ccc(OC)c(/C=C/C(=O)N2CCN(S(=O)(=O)c3cc(C)ccc3C)CC2)c1	inconclusive [inhibitor, partial curve, poor fit]
O=c1cc(N2CCC(Cc3ccccc3)CC2)[nH]c(=O)n1C1CCCCC1	inconclusive [inhibitor, single point]
COc1ccc([C@@H]2[C@@H]3C(=O)N(C(C)(C)C)C(=O)[C@@H]3[C@]3(CC(C)C)C(=O)N(c4cccc(Br)c4)C(=O)N23)cc1	inconclusive [inhibitor, full curve, poor fit]
O=S(=O)(c1ccc(NC(=S)N/N=C/c2cccc(Oc3ccccc3)c2)cc1)N1CCOCC1	inconclusive [inhibitor, single point]
O=C(Nc1ccc(S(=O)(=O)NC2=NCCCCC2)cc1)c1cc(S(=O)(=O)N2CCOCC2)ccc1F	inconclusive [inhibitor, partial curve]
c1ccc(-c2cncnc2)nc1	inactive
Cc1ccc2sc(N(CCCN(C)C)C(=O)c3ccc(S(=O)(=O)N(C)Cc4ccccc4)cc3)nc2c1C	active: 10.4 µM
Cc1cc(C)n(C(=O)CSc2nc3ccccc3o2)n1	inactive
Cc1ccc(S(=O)(=O)Nc2ccc(=O)n(Cc3ccc(Cl)c(Cl)c3)c2)cc1	inconclusive [inhibitor, full curve]
CCN(CC)C(=S)SCC(=O)c1ccccc1	inactive
COc1ccc(N=C(C)c2c(O)n(C)c(=O)n(C)c2=O)c(OC)c1	inconclusive [inhibitor, single point]
COc1ccc(/C=C/C(=O)NCCCN2CCCC2)cc1	inactive
Cc1cccc(-n2c(CNC(=O)c3ccc(S(=O)(=O)N(C)C)cc3)nnc2SCC(=O)Nc2ccc(F)cc2)c1	active: 11.7 µM
COCCCn1c(SCc2ccc(OC)cc2)nc2cc(OC)c(OC)cc2c1=N	inconclusive [inhibitor, partial curve]
COc1cc(C(F)(F)F)nc2ccc(C#CCOC(=O)Nc3ccccc3)cc12	inconclusive [inhibitor, single point]
CCN1/C(=C2\OC(=S)N(C)C2=O)C=Cc2ccccc21	inactive
CN(C)S(=O)(=O)c1cc(NC(=O)CN2CCCc3ccccc32)ccc1Cl	inconclusive [inhibitor, partial curve, poor fit]
CC(C)COc1ccc(C(=O)OCC(=O)NCCC2=CCCCC2)cc1	inconclusive [inhibitor, single point]
